# Data published in ChEMBL document CHEMBL5606458, “ASAP - ZIKV NS2B-NS3 protease fluorescence single point” (2024).
# Among all 2,700 compounds or so, about 160 (5.9%) showed an effect of 50% or more. The list shows a part of the results.
# Target: Nonstructural protein 3 (Zika virus) (UniProt A0A024AXB9)
# [1] = PRVABC59, Concentration 15.0 uM, Number of replicates 1.0
# [2] = PRVABC59, Concentration 50.0 uM, Number of replicates 1.0
# UniProt A0A024AXB9, sequence (A0A024AXB9 as listed by the source): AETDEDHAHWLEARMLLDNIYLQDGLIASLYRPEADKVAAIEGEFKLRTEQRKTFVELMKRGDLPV
structure (smiles),measurement,setting,value
Cc1cc(CO)c2cccc(Cc3ccccc3NC(=O)c3nc(C4CCNCC4)oc3C)c2n1,inhibition,"PRVABC59, Concentration 49.95 uM, Number of replicates 2.0, Standard deviation 3.130141914719793 %",12.3%
same,inhibition,"PRVABC59, Concentration 99.9 uM, Number of replicates 2.0, Standard deviation 0.6412983547468495 %",60.8%
CNC(=O)C1(C(=O)Nc2ccncc2C)CC1,inhibition,"PRVABC59, Concentration 49.5 uM, Number of replicates 2.0, Standard deviation 2.398978218165409 %",-4.23%
same,inhibition,"PRVABC59, Concentration 99.01 uM, Number of replicates 2.0, Standard deviation 2.773092021574055 %",-4.66%
same,inhibition,"PRVABC59, Concentration 198.0 uM, Number of replicates 2.0, Standard deviation 2.940069406004515 %",-4.14%
CN1[C@@H]2CCC[C@H]1C[C@@H](NC(=O)c1cc(Cl)ccc1NS(=O)(=O)c1ccc(Oc3ccccc3Cl)cc1)C2,inhibition,[1],1.62%
O=Cc1ccc(N2CCC(C(=O)Nc3nc(-c4ccc(Cl)c(Cl)c4)cs3)CC2)cc1,inhibition,[2],24.5%
O=C(c1cc(Cl)ccc1NS(=O)(=O)c1ccc(Oc2ccccc2Cl)cc1)N1CCC[C@H](C(F)(F)F)C1,inhibition,[1],20.5%
O=Cc1ccc(N2CCC(C(=O)N3CCc4c([nH]c5ccccc45)C3)CC2)cc1,inhibition,[2],3.67%
Cc1ncc(-c2ccccc2C(=O)Nc2cnn(C)c2)cn1,inhibition,"PRVABC59, Concentration 49.5 uM, Number of replicates 2.0, Standard deviation 6.167999932877102 %",-0.573%
same,inhibition,"PRVABC59, Concentration 99.01 uM, Number of replicates 2.0, Standard deviation 6.088749527748128 %",-0.405%
same,inhibition,"PRVABC59, Concentration 198.0 uM, Number of replicates 2.0, Standard deviation 6.674429131032364 %",3.47%
Cc1n[nH]c(CC(=O)N2CCC[C@H](n3cnc(C(N)=O)n3)C2)n1,inhibition,"PRVABC59, Concentration 49.5 uM, Number of replicates 2.0, Standard deviation 0.6580629802384823 %",-1.42%
same,inhibition,"PRVABC59, Concentration 99.01 uM, Number of replicates 2.0, Standard deviation 1.5259805983030124 %",-2.76%
same,inhibition,"PRVABC59, Concentration 198.0 uM, Number of replicates 2.0, Standard deviation 3.235908082358729 %",-3.44%
O=Cc1ccc(N2CCC(C(=O)Nc3ccc(C(F)(F)F)cn3)CC2)cc1,inhibition,[2],26.5%
NCc1cccc(NC(=O)[C@@H](CO)NC(=O)OCc2ccccc2)c1,inhibition,"PRVABC59, Concentration 49.5 uM, Number of replicates 2.0, Standard deviation 2.4696309190792523 %",0.466%
same,inhibition,"PRVABC59, Concentration 99.01 uM, Number of replicates 2.0, Standard deviation 4.203279186849219 %",2.84%
same,inhibition,"PRVABC59, Concentration 198.0 uM, Number of replicates 2.0, Standard deviation 4.3159482180208295 %",5.56%
Cc1c(C(=O)NCc2ccccn2)cc(C2CC2)n1C,inhibition,"PRVABC59, Concentration 49.5 uM, Number of replicates 2.0, Standard deviation 4.03936652104494 %",1.17%
same,inhibition,"PRVABC59, Concentration 99.01 uM, Number of replicates 2.0, Standard deviation 2.7270077301815765 %",0.686%
same,inhibition,"PRVABC59, Concentration 198.0 uM, Number of replicates 2.0, Standard deviation 2.0980329453519184 %",-2.6%
C[C@H](NC(=O)c1cc(Cl)ccc1NS(=O)(=O)c1ccc(Oc2ccccc2Cl)cc1)c1ccc(S(C)(=O)=O)cc1,inhibition,[1],31.5%
O=C(c1cc(Cl)ccc1NS(=O)(=O)c1ccc(Oc2ccccc2Cl)cc1)N1CCC(C(F)(F)F)CC1,inhibition,[1],17.2%
Cc1cc(CO)c2cccc(Nc3n[nH]c4ccc(C#N)cc34)c2n1,inhibition,"PRVABC59, Concentration 49.95 uM, Number of replicates 2.0, Standard deviation 0.8071707331030509 %",-1.25%
same,inhibition,"PRVABC59, Concentration 99.9 uM, Number of replicates 2.0, Standard deviation 1.6244310845648215 %",0.767%
O=C(NCc1cc(-c2ccc(Cl)cc2)on1)c1cc(Cl)ccc1NS(=O)(=O)c1ccc(Oc2ccccc2Cl)cc1,inhibition,[1],37.7%
CSc1cccc(CN(C)C(=O)C2CCN(c3ccc(C=O)cc3)CC2)c1,inhibition,[2],20.7%
O=Cc1ccc(N2CCC(C(=O)Nc3cccc(I)c3)CC2)cc1,inhibition,[2],23.2%
O=C1NCC[C@@H]1CNS(=O)(=O)c1ccc(Oc2ccccc2Cl)cc1,inhibition,"PRVABC59, Concentration 49.5 uM, Number of replicates 2.0, Standard deviation 1.553523437364336 %",-1.48%
same,inhibition,"PRVABC59, Concentration 99.01 uM, Number of replicates 2.0, Standard deviation 2.384182988464145 %",5.62%
same,inhibition,"PRVABC59, Concentration 198.0 uM, Number of replicates 2.0, Standard deviation 1.5662052133470215 %",10.8%
COc1cccc(C(=O)N2CCN(C(=O)C3CCN(c4ccc(C=O)cc4)CC3)CC2)c1,inhibition,[2],25.5%
C=CCN(C(=O)c1cc(Cl)ccc1NS(=O)(=O)c1ccc(Oc2ccccc2Cl)cc1)[C@H]1CCS(=O)(=O)C1,inhibition,[1],19.4%
Cc1cc(CO)c2cccc(NCC3CCOCC3)c2n1,inhibition,"PRVABC59, Concentration 49.95 uM, Number of replicates 2.0, Standard deviation 1.1048152333285624 %",-5.47%
Cc1cc(CO)c2cccc(N3CCC(C(=O)O)CC3)c2n1,inhibition,"PRVABC59, Concentration 49.95 uM, Number of replicates 2.0, Standard deviation 3.6180823862513867 %",-0.444%
same,inhibition,"PRVABC59, Concentration 99.9 uM, Number of replicates 2.0, Standard deviation 3.3671751163954844 %",6.38%
